This is an account of results in PMC9911399, “Two distinct binding modes provide the RNA-binding protein RbFox with extraordinary sequence specificity”.

To fix the notation:
T1: RBFOX1 RRM (Homo sapiens, UniProt Q9NWB1 109-208)
T1 sequence: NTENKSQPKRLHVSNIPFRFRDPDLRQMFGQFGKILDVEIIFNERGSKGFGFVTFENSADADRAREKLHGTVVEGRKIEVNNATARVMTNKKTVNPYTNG

B1: UGUCUGA (DNA:RNA)
RNA: GGGAGACCGGAAUUCAGAUUGUCCUGUCUGAUUAAAUCCCGUCGUAGCCACCA
DNA 1: CAATCTGAATTCCGGTCTCCC
DNA 2: TGGTGGCTACGACGGGATT
B2: AUAGGAU (DNA:RNA)
RNA: GGGAGACCGGAAUUCAGAUUGUCCAUAGGAUUUAAAUCCCGUCGUAGCCACCA
DNA 1: CAATCTGAATTCCGGTCTCCC
DNA 2: TGGTGGCTACGACGGGATT
B3: CAUCCAA (DNA:RNA)
RNA: B1 RNA with U25C, G26A, U29C, G30A
DNA 1: CAATCTGAATTCCGGTCTCCC
DNA 2: TGGTGGCTACGACGGGATT
B4: CAAACGG (DNA:RNA)
RNA: B2 RNA with A25C, U26A, G28A, G29C, A30G, U31G
DNA 1: CAATCTGAATTCCGGTCTCCC
DNA 2: TGGTGGCTACGACGGGATT
B5: GGGAGCU (DNA:RNA)
RNA: B2 RNA with A25G, U26G, A27G, G28A, A30C
DNA 1: CAATCTGAATTCCGGTCTCCC
DNA 2: TGGTGGCTACGACGGGATT
B6: GUCAGCA (DNA:RNA)
RNA: B2 RNA with A25G, A27C, G28A, A30C, U31A
DNA 1: CAATCTGAATTCCGGTCTCCC
DNA 2: TGGTGGCTACGACGGGATT
B7: CGUUAGG (DNA:RNA)
RNA: B1 RNA with U25C, C28U, U29A, A31G
DNA 1: CAATCTGAATTCCGGTCTCCC
DNA 2: TGGTGGCTACGACGGGATT
B8: CGGCGCA (DNA:RNA)
RNA: B1 RNA with U25C, U27G, U29G, G30C
DNA 1: CAATCTGAATTCCGGTCTCCC
DNA 2: TGGTGGCTACGACGGGATT
B9: AUCCGUU (DNA:RNA)
RNA: B2 RNA with A27C, G28C, A30U
DNA 1: CAATCTGAATTCCGGTCTCCC
DNA 2: TGGTGGCTACGACGGGATT
B10: GAUUCGC (DNA:RNA)
RNA: B1 RNA with U25G, G26A, C28U, U29C, A31C
DNA 1: CAATCTGAATTCCGGTCTCCC
DNA 2: TGGTGGCTACGACGGGATT
B11: GCGGCAU (DNA:RNA)
RNA: B2 RNA with A25G, U26C, A27G, G29C
DNA 1: CAATCTGAATTCCGGTCTCCC
DNA 2: TGGTGGCTACGACGGGATT
B12: AGAGAAG (DNA:RNA)
RNA: B2 RNA with U26G, G29A, U31G
DNA 1: CAATCTGAATTCCGGTCTCCC
DNA 2: TGGTGGCTACGACGGGATT
B13: UUAUUUG (DNA:RNA)
RNA: B2 RNA with A25U, G28U, G29U, A30U, U31G
DNA 1: CAATCTGAATTCCGGTCTCCC
DNA 2: TGGTGGCTACGACGGGATT
B14: GGGGGUG (DNA:RNA)
RNA: B2 RNA with A25G, U26G, A27G, A30U, U31G
DNA 1: CAATCTGAATTCCGGTCTCCC
DNA 2: TGGTGGCTACGACGGGATT
B15: UGGUUCC (DNA:RNA)
RNA: B1 RNA with U27G, C28U, G30C, A31C
DNA 1: CAATCTGAATTCCGGTCTCCC
DNA 2: TGGTGGCTACGACGGGATT
B16: UGCGGCA (DNA:RNA)
RNA: B1 RNA with U27C, C28G, U29G, G30C
DNA 1: CAATCTGAATTCCGGTCTCCC
DNA 2: TGGTGGCTACGACGGGATT
B17: GUGAGUC (DNA:RNA)
RNA: B2 RNA with A25G, A27G, G28A, A30U, U31C
DNA 1: CAATCTGAATTCCGGTCTCCC
DNA 2: TGGTGGCTACGACGGGATT
B18: GAAAUGA (DNA:RNA)
RNA: B1 RNA with U25G, G26A, U27A, C28A
DNA 1: CAATCTGAATTCCGGTCTCCC
DNA 2: TGGTGGCTACGACGGGATT
B19: GAGGGCG (DNA:RNA)
RNA: B2 RNA with A25G, U26A, A27G, A30C, U31G
DNA 1: CAATCTGAATTCCGGTCTCCC
DNA 2: TGGTGGCTACGACGGGATT
B20: CGACUUA (DNA:RNA)
RNA: B1 RNA with U25C, U27A, G30U
DNA 1: CAATCTGAATTCCGGTCTCCC
DNA 2: TGGTGGCTACGACGGGATT
B21: CGUUCGC (DNA:RNA)
RNA: B1 RNA with U25C, C28U, U29C, A31C
DNA 1: CAATCTGAATTCCGGTCTCCC
DNA 2: TGGTGGCTACGACGGGATT
B22: CGGACUA (DNA:RNA)
RNA: B1 RNA with U25C, U27G, C28A, U29C, G30U
DNA 1: CAATCTGAATTCCGGTCTCCC
DNA 2: TGGTGGCTACGACGGGATT
B23: CUGGAGC (DNA:RNA)
RNA: B2 RNA with A25C, A27G, G29A, A30G, U31C
DNA 1: CAATCTGAATTCCGGTCTCCC
DNA 2: TGGTGGCTACGACGGGATT
B24: GCUCAAU (DNA:RNA)
RNA: B2 RNA with A25G, U26C, A27U, G28C, G29A
DNA 1: CAATCTGAATTCCGGTCTCCC
DNA 2: TGGTGGCTACGACGGGATT
B25: AGUCUUA (DNA:RNA)
RNA: B1 RNA with U25A, G30U
DNA 1: CAATCTGAATTCCGGTCTCCC
DNA 2: TGGTGGCTACGACGGGATT
B26: AAGACUA (DNA:RNA)
RNA: B2 RNA with U26A, A27G, G28A, G29C, A30U, U31A
DNA 1: CAATCTGAATTCCGGTCTCCC
DNA 2: TGGTGGCTACGACGGGATT
B27: CCUCCUG (DNA:RNA)
RNA: B1 RNA with U25C, G26C, U29C, G30U, A31G
DNA 1: CAATCTGAATTCCGGTCTCCC
DNA 2: TGGTGGCTACGACGGGATT
B28: CCGAUGG (DNA:RNA)
RNA: B1 RNA with U25C, G26C, U27G, C28A, A31G
DNA 1: CAATCTGAATTCCGGTCTCCC
DNA 2: TGGTGGCTACGACGGGATT
B29: UGCUCGG (DNA:RNA)
RNA: B1 RNA with U27C, C28U, U29C, A31G
DNA 1: CAATCTGAATTCCGGTCTCCC
DNA 2: TGGTGGCTACGACGGGATT
B30: AGCAUCU (DNA:RNA)
RNA: B2 RNA with U26G, A27C, G28A, G29U, A30C
DNA 1: CAATCTGAATTCCGGTCTCCC
DNA 2: TGGTGGCTACGACGGGATT
B31: CGGAAUA (DNA:RNA)
RNA: B1 RNA with U25C, U27G, C28A, U29A, G30U
DNA 1: CAATCTGAATTCCGGTCTCCC
DNA 2: TGGTGGCTACGACGGGATT

Positions count from the first letter of the chain named. This is one part of the list.

In the assay the target is T1, RBFOX1 RRM. As to the kind of experiment: EMSA; HiTS-Eq, 1 nM pool, 10 min; buffer printed only for the single-RNA assays: 10 mM Tris pH 7.5, 150 mM NaCl, 3.4 mM EDTA, 0.001% NP-40, 30 C. Particulars: tags: His6 N-terminal (pET28a); label: 5' 32P. An outline of the steps: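 Relative association constants, normalised to the cognate motif, were derived by comparing read counts of each RNA species with those of the control reaction. The RNA sequenced was the free fraction, separated by 8% native PAGE after a 10 min equilibration in 50 µL of 1 nM 5′-radiolabelled RNA (7 randomized nucleotides) with increasing concentrations of purified wild-type or mutant RbFox RRM.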
In general terms: In EMSA bound probe runs differently from free probe, usually more slowly.
In the case of B1, the binding signal is 0.0256 KA relative to UGCAUGU. Then B2, with 0.00437 KA relative to UGCAUGU; and B3, with 0.000478 KA relative to UGCAUGU.

On to B4, for which the binding signal was 0.00338 KA relative to UGCAUGU. With B5, the binding signal is 0.035 KA relative to UGCAUGU. Turning to B6, the binding signal is 0.0129 KA relative to UGCAUGU. Turning to B7, the binding signal was 0.0105 KA relative to UGCAUGU. Regarding B8, the binding signal is 0.0121 KA relative to UGCAUGU. Then B9, with 0.00347 KA relative to UGCAUGU; and B10, with 0.0154 KA relative to UGCAUGU. For the molecule B11, the binding signal is 0.0242 KA relative to UGCAUGU. For the molecule B12, the binding signal is 0.00984 KA relative to UGCAUGU. For B13, the binding signal is 0.0189 KA relative to UGCAUGU.

Turning to B14, the binding signal was 0.0397 KA relative to UGCAUGU. With B15, the binding signal is 0.0214 KA relative to UGCAUGU.

Regarding B16, the binding signal is 0.0296 KA relative to UGCAUGU. Under B17 stands 0.0134 KA relative to UGCAUGU. For the molecule B18, the binding signal was 0.0134 KA relative to UGCAUGU. As for B19, the binding signal was 0.0175 KA relative to UGCAUGU.

For the molecule B20, the binding signal is 0.00583 KA relative to UGCAUGU. With B21, the binding signal is 0.0165 KA relative to UGCAUGU. Under B22 stands 0.0159 KA relative to UGCAUGU; under B23, 0.0152 KA relative to UGCAUGU; under B24, 0.00854 KA relative to UGCAUGU. On to B25, for which the binding signal is 0.00517 KA relative to UGCAUGU.

Turning to B26, the binding signal was 0.00396 KA relative to UGCAUGU. For B27, the binding signal was 0.0157 KA relative to UGCAUGU. Turning to B28, the binding signal was 0.0149 KA relative to UGCAUGU. Under B29 stands 0.0361 KA relative to UGCAUGU; under B30, 0.0119 KA relative to UGCAUGU; under B31, 0.015 KA relative to UGCAUGU.
